# Values joined by “and” are separate entries in the source; they are usually repeats but may differ in a detail not shown here. Identical values can stand only once. The whole screen tested about 48,000 compounds, of which about 1,200 (2.5%) were called active. Inconclusive results (about 2%) are left out.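 Rule for the calls: active = activation of at least 60% and not above a set upper limit (about 1 call in 100 departs from these limits); inconclusive = activation of 40% to 60%, or above that upper limit; inactive = activation under 40%.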 This is one part of the list.
# Biological target: Probable G-protein coupled receptor 32 (Homo sapiens) (UniProt O75388)
# Assay: qHTS for Agonists of Human Resolvin D1 Receptor DRV1; note: 0% is about no effect
# Conditions: CHO-K1 GPR32 beta-arrestin PathHunter luminescence, 90 min; at 76.9 µM; hits give high values; zero percent set by DMSO-only wells
# How it was run: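 GPR32 activation in stably transfected CHO-K1 cells, detected as beta-arrestin recruitment by enzyme-fragment complementation. Compound exposure: 90 min, 37 °C.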
# Chain of UniProt O75388 (O75388 whole entry, looked up): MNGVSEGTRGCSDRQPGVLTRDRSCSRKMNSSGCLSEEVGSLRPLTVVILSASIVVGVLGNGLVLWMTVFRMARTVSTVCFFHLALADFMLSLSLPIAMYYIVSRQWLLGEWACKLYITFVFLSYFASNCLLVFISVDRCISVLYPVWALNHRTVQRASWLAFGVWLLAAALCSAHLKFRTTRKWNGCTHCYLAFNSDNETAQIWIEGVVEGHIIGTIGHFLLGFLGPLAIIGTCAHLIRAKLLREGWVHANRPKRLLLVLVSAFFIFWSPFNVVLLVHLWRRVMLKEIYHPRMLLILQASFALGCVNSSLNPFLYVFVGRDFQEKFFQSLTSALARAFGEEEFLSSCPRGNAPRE
row,Compound,activation
1,CCc1cccc(C)c1Nc1c(-c2ccc(N3CCOCC3)cc2)nc2ncccn12,inactive: -13.6%
2,CC(=O)c1ccc(NC(=O)C2CCCN(S(=O)(=O)c3cn(C)cn3)C2)cc1 (configuration not stated),inactive: -14%
3,Cc1cc(S(=O)(=O)n2ccnc2C(C)C)cc([N+](=O)[O-])c1C,inactive: -14.1%
4,CCCNc1ccc(-c2nc(-c3ccco3)no2)cc1[N+](=O)[O-],inactive: 49.3%
5,CCc1ccc(CNC(=O)C(CC)n2nc(C)c3c(C)n(-c4ccccc4)nc3c2=O)cc1 (configuration not stated),inactive: 9.3%
6,CCOC(=O)c1[nH]c2ccccc2c1NC(=O)c1ccccc1OC,inactive: 6.45%
7,COc1ccc(CNc2nc(-c3ccco3)nn2C(=O)CC(C)C)cc1,inactive: -26.1%
8,CCOC(=O)c1nc(Nc2ccc(Cl)cc2)c2c(C)noc2n1,inactive: 8.85%
9,Cc1ccc(Cl)cc1N1CCN(C(=O)c2cn(CC(C)C)c(=O)c3c2c2ccccc2n3C)CC1,inactive: 6.45%
10,Cc1ccc(CCNC(=O)c2ccc(CNS(=O)(=O)c3ccc(C)cc3)cc2)cc1,inactive: 12.3%
11,O=C(Nc1cc(C(F)(F)F)ccc1Cl)c1ccc2c(c1)CCN2S(=O)(=O)c1ccccc1,inactive: -25.6%
12,CCC(C)(C)C(=O)O[C@H]1C[C@@H](C)C=C2C=C[C@H](C)[C@H](CC[C@@H]3C[C@@H](O)CC(=O)O3)[C@H]21,inactive: 39.5%
13,COc1ccc(N2CCN(C(=O)c3ccc4c(c3)N(Cc3cc(C)ccc3C)C(=O)c3ccccc3S4=O)CC2)cc1 (configuration not stated),inactive: -9.84%
14,Cc1cn2c(=O)cc(COc3cccc(NC(=O)c4ccccc4Cl)c3)nc2s1,inactive: 2.93%
15,COc1cccc(N2CC(NC(=O)C3CCCCC3)CC2=O)c1 (configuration not stated),inactive: -2.02%
16,CC(=O)c1c(C)oc2ccc(NS(=O)(=O)c3ccc(C(C)C)cc3)cc12,inactive: 31.4%
17,Cc1cc(C)c(Cn2c(=O)n(-c3ccccc3Cl)c(=O)c3c(C)c(C(=O)N(C)C)sc32)c(C)c1,inactive: -1.89%
18,CC(Oc1ccccc1)C(=O)Nc1nnc(S(=O)(=O)N2CCCCCC2)s1 (configuration not stated),inactive: 2.98%
19,COc1ccc(C(=O)Nc2nnc(S(=O)(=O)N3CCN(c4ccc(C)cc4)CC3)s2)cc1,inactive: 13.1%
20,COc1ccc(-c2cc3nc(C)c(CCC(=O)Nc4ccc(F)cc4F)c(C)n3n2)c(OC)c1,inactive: 2.51%
21,COc1cccc(-c2cc(C(=O)Nc3ccc4c(c3)OCO4)no2)c1,inactive: -1.78%

row,Compound,activation
1,Cc1ccc(Oc2nc3c(c(=O)n(Cc4ccccc4Cl)c(=O)n3C)n2C)cc1C,inactive: 25.6%
2,COc1cccc(C(=O)c2sc(Nc3ccc(F)c(Cl)c3)nc2N)c1,inactive: 2.95%
3,Cn1c(=O)c2sccc2n2c(CCC(=O)Nc3ccc(F)cc3)nnc12,inactive: 1.31%
4,Cc1cc(C)cc(NC(=O)C(=O)NCC(c2cccnc2)N2CCc3ccccc32)c1 (configuration not stated),inactive: -30.4%
5,CCC1CCCCN1CCCNC(=O)c1ccc2c(c1)sc1nc(-c3ccc(F)cc3)cn12 (configuration not stated),inactive: -5.53%
6,COc1ccc(OC)c(-c2noc(N3CCN(c4cc(Cl)ccc4C)CC3)n2)c1,inactive: 19.9%
7,Cc1ccc(C)c(NC(=O)CSc2nnc(C)n3c2cc2occc23)c1,inactive: -2.15%
8,C[C@@H]1CN(c2c(F)c(F)c3c(=O)c(C(=O)O)cn(C4CC4)c3c2F)C[C@H](C)N1,inactive: 20.4%
9,COC(=O)c1ccc(Cl)cc1NC(=O)Nc1nnc(N(C)Cc2ccccc2)s1,inactive: -10.5%
10,COc1ccc(C2c3c(-c4ccccc4O)n[nH]c3C(=O)N2CCc2ccccc2)cc1 (configuration not stated),inactive: 13.8%
11,O=S(=O)(Nc1cccc(-c2ccc(N3CCOCC3)nn2)c1)c1cc(C(F)(F)F)ccc1Cl,inactive: 42.9%
12,COc1ccccc1NC(=O)CN1CCN(CC(=O)Nc2ccc(F)c(F)c2)CC1,inactive: 26.2%
13,COc1ccc2c(c1)c(=O)c(C(=O)c1ccc(C)cc1)cn2Cc1ccccc1F,inactive: 7.72%
14,CCOC(=O)c1ccc(CN(Cc2ccc(Br)cc2)S(=O)(=O)c2cccc(C(F)(F)F)c2)cc1,inactive: -3.66%
15,CCC(C(=O)OC)n1nnc2sc(-c3ccccc3)cc2c1=O (configuration not stated),inactive: 49.5%
16,COc1cccc(OC)c1OCCNCC1CSc2ccccc2O1 (configuration not stated),inactive: 10.5%
17,O=C(COc1ccccc1Cl)Nc1ccccc1OCc1cc(=O)n2ccccc2n1,inactive: -10.6%
18,Cc1ccc(N2C(=O)CS(=O)(=O)C23C(=O)N(Cc2ccccc2F)c2ccccc23)cc1Cl (configuration not stated),inactive: -8.88%
19,CCCCN(CC)CCNc1ncnc2onc(-c3ccc(Cl)cc3)c12,inactive: 15.2%
20,CN(c1ccccc1)C(CNS(=O)(=O)c1ccccc1)c1ccccc1 (configuration not stated),inactive: -19.1%
21,O=C(CN1C(=O)C2CCCCN2c2ccc(C(=O)N3CCCC3)cc21)NCc1ccccc1F (configuration not stated),inactive: -26.3%

row,Compound,activation
1,Cc1cccc(NC(=O)NC2COc3ccccc3C2)c1C (configuration not stated),inactive: -5.3%
2,CNS(=O)(=O)c1cn(CC(=O)Nc2cccc(C(F)(F)F)c2)cc1S(=O)(=O)NC,inactive: -4.88%
3,Cc1ccc(CN(Cc2ccco2)C(=O)c2cccc(C)c2)cc1,inactive: -5.69%
4,COC(=O)c1sccc1S(=O)(=O)N(CC(=O)NCc1ccc(F)cc1)c1ccc(C)c(C)c1,inactive: 9.18%
5,CC(C)COc1ccc(Nc2ncnc3ccc(Br)cc23)cc1,inactive: 9.97%
6,COc1ccc(Cc2nnc(C(=O)NCCCN3CCN(c4ccccc4F)CC3)o2)cc1OC,inactive: -24%
7,CCCCS(=N)(=O)CCC(N)C(=O)O (configuration not stated),inactive: 1.76%
8,CNS(=O)(=O)c1cn(CC(=O)N2CCN(c3ccc(C)cc3C)CC2)cc1S(=O)(=O)NC,inactive: -3.51%
9,CC(=O)O[C@H]1CC2(C)[C@@H](C[C@@H](O)[C@H]3[C@@]4(C)CC[C@@H](O)[C@@H](C)[C@@H]4CC[C@@]32C)C1=C(CCC=C(C)C)C(=O)O (some centres not stated),inactive: 9.37%
10,Cc1cccc(N2CCN(C(=O)C3CCN(Cc4nc(-c5ccc(Cl)cc5)oc4C)CC3)CC2)c1C,inactive: 0.879%
11,COc1cc(OC)c(NC(=O)c2cc3c(s2)-c2ccc(Cl)cc2SC3)cc1Cl,inactive: -6.77%
12,CCc1nn2c(-c3ccco3)ccnc2c1-c1ccccc1,inactive: -5.61%
13,N=c1nc(N2CCCCC2)cc(N)n1O,inactive: -6.34% and inactive: 5.4%
14,CCC1CN(C(=O)N2CCC(C(=O)NCc3cc(OC)ccc3OC)CC2)c2ccccc2O1 (configuration not stated),inactive: -12.5%
15,CCOC(=O)c1cc(S(=O)(=O)Nc2ccc(OC(F)(F)F)cc2)[nH]n1,inactive: -8.1%
16,COc1ccc(NC(=O)CSc2nc(-c3ccc(OC)cc3)cc(=O)[nH]2)cc1,inactive: -1.66%
17,Cn1c(C(=O)NCc2ccc(F)cc2)cc2cc(S(=O)(=O)N3CCCCC3)ccc21,inactive: -20.5%
18,COc1ccc(-c2cc3ccc(O)c(CN4CCN(CCO)CC4)c3oc2=O)cc1OC,inactive: 11.9%
19,O=C(Nc1cccc(Cl)c1Cl)c1cc2nc(-c3ccc4c(c3)OCO4)cc(C(F)(F)F)n2n1,inactive: -20.2%
20,Cc1cccn2c(Nc3ccc4c(c3)OCCO4)c(-c3ccc(Br)o3)nc12,inactive: -0.413%
21,O=C(NCc1ccccc1Cl)c1cnc(N2CCCCC2)c2ccccc12,inactive: -26.1%

row,Compound,activation
1,CCN(C(=O)Cn1c(SCC(=O)NCc2ccccc2)nc2ccccc21)c1cccc(C)c1,inactive: 1.73%
2,COc1ccccc1NC(=O)c1oc2ccccc2c1NC(=O)c1ccc(S(=O)(=O)N(C)C)cc1,inactive: -13.9%
3,COc1cc(-c2nc3n(n2)C(c2ccc(F)cc2)C(C(N)=O)=C(C)N3)cc(OC)c1OC (configuration not stated),inactive: 7.44%
4,COc1ccc(OC)c(CNC(=O)c2cc(-c3ccc(Cl)s3)nc3ccccc23)c1,inactive: -15.5%
5,Cc1ccc(-n2nc(C(=O)NCCc3cccc(C)c3)c3c4ccccc4n(C)c3c2=O)cc1,inactive: -7.57%
6,Cc1ccc(CNC(=O)c2cc(C3CC3)nc3c2c(C)nn3-c2cccc(Cl)c2C)cc1,inactive: -3.28%
7,CCCN(CCC)C(=O)c1c[nH]c2ccc(S(=O)(=O)Nc3cc(C)cc(C)c3)cc2c1=O,inactive: -4.55%
8,Cc1ccc(NC(=O)c2nc(S(=O)(=O)Cc3cccc(C)c3)ncc2Cl)cc1,inactive: -21.8%
9,Cc1ccc(N2C(=O)c3oc4cc(C)c(C)cc4c(=O)c3C2c2cccc(O)c2)nc1 (configuration not stated),inactive: 4.53%
10,COc1ccc(NC(=O)CSc2ccc(-c3cccs3)nn2)cc1,active: 112%
11,COc1ccc(/C=C/C(=O)N2CCC(c3nc4ccccc4o3)CC2)cc1,inactive: -7.37%
12,CCOc1ccc(C(=O)Nc2ccc(C(=O)OCc3cc(=O)n4nc(CC)sc4n3)cc2)cc1,inactive: -7.29%
13,COC(=O)c1ccc(NC(=O)N2CCC(CN3CCc4ccccc4C3)CC2)cc1,inactive: -7.72%
14,CN(C)C(=O)COC(=O)Cc1ccc(OC(=O)c2ccc(N=C(N)N)cc2)cc1,inactive: -11.3%
15,CCS(=O)(=O)c1nc(S(=O)(=O)c2ccc(C)cc2)c(NCc2ccc(Cl)cc2)s1,inactive: -11.7%
16,CCOC(=O)c1ccc(NS(=O)(=O)c2cn(C)c(C)n2)cc1,inactive: -3.15%
17,Cc1ccc(S(=O)(=O)N2CCCc3cc(NC(=O)c4ccc(F)c(F)c4)ccc32)cc1,inactive: -14.6%
18,CCOc1ccc(N(CC)S(=O)(=O)N2CCCC(C(=O)Nc3ccc(NC(C)=O)cc3)C2)cc1 (configuration not stated),inactive: -11.7%
19,O=C(COc1ccc2oc3c(c2c1)CCCC3)Nc1ccc(Cl)cc1,active: 74.5%
